Data as given in paper PMC12136788.
Some of the results follow.

B1: chr2:33399154:33399255:+|3pUTR|ENSG00000049323|msi1|FALSE|unique (ssRNA)
RNA: GGGAGUUCUACAGUCCGACGAUCAAGUACUUUAUAUUUUCAGUGUUUUGUCUGAUUUUAAUGUCCGUUCUUAGCCAAGCUGCUAGCAGGUGUUAAUUGGAUCCCUUUCCUUCACUGAAAUGGAAGAGUUUAUAAGCUUACGUUCAACAGAGGAUUGAGCAUCA
B2: chr5:180576808:180576909:+|3pUTR|ENSG00000113300|unk|FALSE|unique (ssRNA)
RNA: GGGAGUUCUACAGUCCGACGAUCUAUUUUCCGUGUCCUAAAUAAUUUUCAAUAAUCUAUAAUCCCUAAAAUGCAAUAAAAACUAGUAUGUUUUCACGGUGUAUAUUUUUUUUCAAAAAUUCUGUAACAAAUAUAUUUAAUGUGCAACAGAGGAUUGAGCAUCA
B3: chrX:85861749:85861850:-|3pUTR|ENSG00000188419|msi1|FALSE|unique (ssRNA)
RNA: GGGAGUUCUACAGUCCGACGAUCCUAAUUUAAAAUUUCAGAAAAUGCUAUUAAAGAAUUUUGAUUCAAGUAUUUAAACUGUUUAGUUAUGCAUGCUUCUUAUUAACCGAAAAUGAUAAUACCAUUUAGUUUAGUGAUCAGUAUCAACAGAGGAUUGAGCAUCA
B4: ENSG00000181104:stop:overlap|stop_codon|ENSG00000181104|stop_codon|NA|stop_codon (ssRNA)
RNA: GGGAGUUCUACAGUCCGACGAUCGUAAAAUGGAUACCUGCUCUAGUAACCUGAAUAACAGCAUAUACAAAAAGCUGUUAACUUAGGAAAAGGGACUGCUGGGAGGUUAAAAAGAAAAGUUUAUAAAAGUGAAUAACCUGAGGACAACAGAGGAUUGAGCAUCA
B5: ENSG00000114062:stop:overlap|stop_codon|ENSG00000114062|stop_codon|NA|stop_codon (ssRNA)
RNA: GGGAGUUCUACAGUCCGACGAUCUGGGAGGACUAGGAAAAUUAAAGAUGAUUAUAGCCAAAAAUGGCCCAGACACAGAAAGGUAGGUAAUUAUUAACUUGUGACUGUAUACCUACCGAAAACCUUGCAUUCCUCGUCACAUACCAACAGAGGAUUGAGCAUCA
B6: chr21:25606471:25606579:-|CDS|ENSG00000154719|unk|FALSE|unique (ssRNA)
RNA: GGGAGUUCUACAGUCCGACGAUCUGAUCUCUUUAAUAAAGAGAAAGCCAGGCAGUUAUCAUUAACUCCCCGAACUGAGAAGAUAGAAGUUAAGCAUGUUGGGAAAACUGACCCCGGUACUGUCUUCGUGAUGAAUAAAAACAUCAACAGAGGAUUGAGCAUCA
B7: ENSG00000100034:stop:overlap|stop_codon|ENSG00000100034|stop_codon|NA|stop_codon (ssRNA)
RNA: GGGAGUUCUACAGUCCGACGAUCGGAGGCAGGACUUGCCCUCCAGCCUUCCAGAACCUGAGACCCAGGCUCCACCAAGAAGCUAGGUGGUUUCCAGGCCCCUGCCCUCCCCUUCCUCCCAUCCUUGUCCUUCUCUCCCUCAGACAACAGAGGAUUGAGCAUCA
B8: chr1:9729132:9729211:-|3pUTR|ENSG00000171603|msi1_unk|FALSE|overlapping (ssRNA)
RNA: GGGAGUUCUACAGUCCGACGAUCUAGUUCUGAGGACACUGGUGGCUGUGCUAUGUGUGGCCAUCCUCCAUGUCCCGUCCCUGUAGCUGCUCUGUUUAGACAGCGGACAGACGCUCACGCCCAGGGGAUGUCCUCACGCUGUCGCAACAGAGGAUUGAGCAUCA
B9: chr11:111494814:111495134:-|three_prime_utr|ENSG00000137707|control|control|control (ssRNA)
RNA: GGGAGUUCUACAGUCCGACGAUCUCUCUAAAAUAAAAAUGAAUUUAAGGUUGAGAGGCCCAUGAAACAAAAAAUGACCAUAUUAGGGACUAGGGUACACAAUGGUAAAUCCUCUCAUACAGAUCAUCACUGUUCUUAGCUGUACAACAGAGGAUUGAGCAUCA
B10: chr3:194587672:194588620:-|three_prime_utr|ENSG00000145014|control|control|control (ssRNA)
RNA: GGGAGUUCUACAGUCCGACGAUCAAGCUGCCCUGGCAAGUGAGGAACCAGGAGCCGUCACUGAGUGUGGCUGGGCUACAUCAUAGCUCAUCACGGAGCUACGACUUUGGGUACUGCGGACAGACCUGGAUAGGCCCAGCAUUCCAACAGAGGAUUGAGCAUCA
B11: chr1:225419324:225419425:-|CDS|ENSG00000143815|msi1|FALSE|unique (ssRNA)
RNA: GGGAGUUCUACAGUCCGACGAUCUUACAUAGCAACACAGUAUAGCCUUCGUCCAAGAAGAGAAGAAGUCAAAUUAAAAGAAAUAGAUUCUAAGGAAGAAAAAUACGUUGCAAAAGAACUGGCAGUGAGAACCUUUGAAGUGACCAACAGAGGAUUGAGCAUCA
B12: chr10:99876058:99876159:-|3pUTR|ENSG00000107554|msi1|FALSE|bound_elsewhere (ssRNA)
RNA: GGGAGUUCUACAGUCCGACGAUCUUGAGCCUAAUGGAAGACUGGAUGUCUUUCUUCUUCAUCCAAGCACCCUAAUGACUGUUUAGUUACAUCCAUAGAUGCAGACAACAUAACACCUGUGACUUACUUGAAUUGGGAUAAGCCCAACAGAGGAUUGAGCAUCA
B13: chr15:43184406:43184511:+|CDS|ENSG00000137842|unk|FALSE|unique (ssRNA)
RNA: GGGAGUUCUACAGUCCGACGAUCACUGCUGUACAUCUGGCAGGUUUAUUCCUGCUACUUUCUUUAUGCAACAUACGGCACCCUAGCUUUUUUAUUCUCCCCUUUGCGGACCUGGUUGACACUGCUGACACCUGUUCUCAUUCGCAACAGAGGAUUGAGCAUCA
B14: chr12:51809400:51809501:+|3pUTR|ENSG00000196876|unk|total|mutant (ssRNA)
RNA: GGGAGUUCUACAGUCCGACGAUCCUGCCUUGCAGCCGAAGCACUUUGAAGGUAAUUUCACAGUCCACCAGACCCGUUUUGCACCGAACAAACCACAGUAAGUCGGCAAGCAGAGCUUUCUAUCUUGUUGGACCACCCGAAACUCAACAGAGGAUUGAGCAUCA

Each binder was assayed against MSI1 full-length (mouse, UniProt Q61474 1-362) (assay: nsRBNS (natural sequence RNA bind-n-seq); RBNS binding buffer (assumed for nsRBNS): 25 mM Tris pH 7.5, 150 mM KCl, 3 mM MgCl2, 0.01% Triton X-100, 500 ug/ml BSA, 20 U/ml SUPERase-In, 4 C; UNK is unkempt and MSI1 is Musashi-1; names of the RNAs are library labels; protein concentration not given here; high values mean tight binding).
Chain of UniProt Q61474 (Q61474 whole entry): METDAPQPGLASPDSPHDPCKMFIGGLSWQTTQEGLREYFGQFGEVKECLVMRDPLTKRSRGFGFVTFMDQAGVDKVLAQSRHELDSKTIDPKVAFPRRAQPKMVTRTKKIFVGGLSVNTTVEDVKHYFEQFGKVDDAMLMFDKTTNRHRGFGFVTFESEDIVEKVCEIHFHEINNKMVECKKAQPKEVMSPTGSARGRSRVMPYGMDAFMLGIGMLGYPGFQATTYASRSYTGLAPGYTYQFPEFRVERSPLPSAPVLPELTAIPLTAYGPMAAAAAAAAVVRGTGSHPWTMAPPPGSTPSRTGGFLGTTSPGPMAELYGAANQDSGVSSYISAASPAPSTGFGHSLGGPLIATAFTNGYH

Row | Binder | binding signal
1 | B1 | 0.417 enrichment R
2 | B2 | 15.7 enrichment R
3 | B3 | 54.6 enrichment R
4 | B4 | 0.328 enrichment R
5 | B5 | 0.428 enrichment R
6 | B6 | 0.308 enrichment R
7 | B7 | 1.62 enrichment R
8 | B8 | 0.532 enrichment R
9 | B9 | 1.78 enrichment R
10 | B10 | 0.493 enrichment R
11 | B11 | 2.94 enrichment R
12 | B12 | 0.725 enrichment R
13 | B13 | 0.436 enrichment R
14 | B14 | 0.502 enrichment R
